Experimental data published in publication PMC7244561.
These are yes or no findings as the source states them, for the method shown. Binding seen in cells or lysates may run through a third protein. Some binding calls cover weakened binding; strength is not graded here. Sequences can lack the tags named with a protein.

Protein sequences, listed by entry. Tags and fused reporters are not part of them. Lines headed by an entry give the natural chain unless they say otherwise; changes in a name come on top. Residues count along the entry.
UniProt Q00987: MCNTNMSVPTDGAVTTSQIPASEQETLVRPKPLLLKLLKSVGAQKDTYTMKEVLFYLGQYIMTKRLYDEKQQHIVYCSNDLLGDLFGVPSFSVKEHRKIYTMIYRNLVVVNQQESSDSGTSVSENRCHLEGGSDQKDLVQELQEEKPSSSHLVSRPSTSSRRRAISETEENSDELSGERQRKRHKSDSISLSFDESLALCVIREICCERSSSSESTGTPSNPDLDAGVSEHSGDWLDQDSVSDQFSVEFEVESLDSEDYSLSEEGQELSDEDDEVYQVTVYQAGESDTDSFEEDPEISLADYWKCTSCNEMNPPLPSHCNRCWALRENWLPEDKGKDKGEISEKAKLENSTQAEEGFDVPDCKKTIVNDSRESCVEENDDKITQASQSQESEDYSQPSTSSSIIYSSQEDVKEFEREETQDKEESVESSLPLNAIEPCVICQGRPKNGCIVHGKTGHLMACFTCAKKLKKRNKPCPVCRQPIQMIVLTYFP
GST-MDM2 (384–491): residues 384-491 of Q00987

Legend:
GST-MDM2 (384–491) = GST-MDM2 (384–491) (UniProt Q00987); assay: pull-down; GST-MDM2 (384–491) immobilized; FLAG-tagged proteins in vitro translated and incubated with it; detection by western blotting; only the target purified
[1] = molecular target: MDM2 (coexpressed in H1299 cells) (UniProt Q00987); assay: co-IP; H1299 cells transfected with FLAG-ATF3wt or FLAG-ATF3VPI in the presence/absence of MDM2; co-IP with the MDM2 antibody, western blotting

Row | Binder | binding (GST-MDM2 (384–491)) | binding [1]
1 | FLAG-ATF3wt (wild-type activating transcription factor 3) (protein, UniProt P18847 1-181) MMLQHPGQVSASEVSASAIVPCLSPPGSLVFEDFANLTPFVKEELRFAIQNKHLCHRMSSALESVTVSDRPLGVSITKAEVAPEEDERKKRRRERNKIAAAKCRNKKKEKTECLQKESEKLESVNAELKAQIEELKNEKQHLIYMLNLHRPTCIVRAQNGRTPEDERNLFIQQIKEGTLQS |  | binds
2 | FLAG-tagged ATF3 5KR (protein, UniProt P18847 1-181) MMLQHPGQVSASEVSASAIVPCLSPPGSLVFEDFANLTPFVKEELRFAIQNKHLCHRMSSALESVTVSDRPLGVSITKAEVAPEEDERKKRRRERNKIAAARCRNRRRERTECLQKESEKLESVNAELKAQIEELKNEKQHLIYMLNLHRPTCIVRAQNGRTPEDERNLFIQQIKEGTLQS | binds | 

Results, then the binder that gave them:

Row | binding (GST-MDM2 (384–491)) | binding [1] | Binder
3 | binds |  | FLAG-tagged ATF3(1–101) (domain or fragment, UniProt P18847 1-101) MMLQHPGQVSASEVSASAIVPCLSPPGSLVFEDFANLTPFVKEELRFAIQNKHLCHRMSSALESVTVSDRPLGVSITKAEVAPEEDERKKRRRERNKIAAA
4 | no binding |  | FLAG-tagged JDP2 (protein, UniProt Q8WYK2 1-163) MMPGQIPDPSVTTGSLPGLGPLTGLPSSALTVEELKYADIRNLGAMIAPLHFLEVKLGKRPQPVKSELDEEEERRKRRREKNKVAAARCRNKKKERTEFLQRESERLELMNAELKTQIEELKQERQQLILMLNRHRPTCIVRTDSVKTPESEGNPLLEQLEKK
